# Test results: PMC6919601, “Identification of Plasmodium dipeptidyl aminopeptidase allosteric inhibitors by high throughput screening” (PLoS ONE, 2019)
# About 230 (0.21%) of roughly 110,000 compounds showed an effect of 50% or more. This is one part of the list.
# Target: DPAP1 (Plasmodium falciparum, UniProt Q8IIJ9)
# Assay: primary screen, percent inhibition; read by cleavage of a fluorogenic dipeptide substrate; higher = more effect of the substance
# Set-up: species or system P. falciparum D10 trophozoite lysates; single well
# 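Further: 30 min substrate incubation versus DMSO and 10 µM JCP410 controls.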
# Sequence of DPAP1 (Q8IIJ9 whole entry, looked up): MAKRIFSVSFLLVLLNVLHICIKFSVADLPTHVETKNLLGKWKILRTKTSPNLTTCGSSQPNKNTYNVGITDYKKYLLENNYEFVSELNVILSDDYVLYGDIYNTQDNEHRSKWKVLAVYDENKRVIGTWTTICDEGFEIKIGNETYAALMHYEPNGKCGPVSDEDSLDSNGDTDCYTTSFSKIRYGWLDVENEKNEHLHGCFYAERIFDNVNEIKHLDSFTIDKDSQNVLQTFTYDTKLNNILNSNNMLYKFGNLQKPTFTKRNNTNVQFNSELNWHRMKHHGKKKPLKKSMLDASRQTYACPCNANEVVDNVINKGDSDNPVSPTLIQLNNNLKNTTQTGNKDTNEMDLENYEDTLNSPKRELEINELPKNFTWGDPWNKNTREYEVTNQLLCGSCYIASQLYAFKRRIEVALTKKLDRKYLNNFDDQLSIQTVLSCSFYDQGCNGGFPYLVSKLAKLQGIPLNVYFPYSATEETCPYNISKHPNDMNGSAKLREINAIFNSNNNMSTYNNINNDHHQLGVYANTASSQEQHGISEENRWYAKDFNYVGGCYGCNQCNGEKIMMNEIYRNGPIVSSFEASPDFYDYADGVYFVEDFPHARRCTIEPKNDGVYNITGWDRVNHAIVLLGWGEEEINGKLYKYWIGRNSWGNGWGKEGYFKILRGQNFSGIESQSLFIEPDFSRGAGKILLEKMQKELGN
row,SMILES,% Inhibition @ 10 uM [%]
1,O=C(O)C1C2C=CC(C2)C1C(=O)Nc1cc(C(F)(F)F)ccc1Cl (stereo not shown),-2.09
2,C=CCOCCN(C)C1=NS(=O)(=O)c2ccccc21,10.9
3,COc1ccc(CNC(=O)COc2ccc(S(=O)(=O)NC(C)C)cc2)cc1,-10.8
4,CC1=C(C(=O)OCc2ccccc2)C(c2ccc(C)s2)NC(=O)N1 (stereo not shown),1.26
5,OC(Cc1nc2ccccc2n1-c1ccccc1)(c1ccccc1)c1ccccc1,1.84
6,O=C(O)C1CCCN(C(=O)c2cnn(-c3ccccc3)c2-n2cccc2)C1 (stereo not shown),-0.0309
7,CCOC(=O)c1nn(-c2ccccc2)c(O)c1/C=C1\C=Nc2ccccc21,2.65
8,Cc1cc(C)c2oc(C(=O)N(Cc3ccccc3)c3ccccn3)cc(=O)c2c1,-1.47
9,NC(=O)c1cccc2c1C(=O)N(C1CCCCC1)C2,-4.93
10,COCC(C)NC1CCN(Cc2ccccc2)CC1 (stereo not shown),3.18
11,N#CC1=C(N)OC2=C(COc3ccccc32)C1c1cccc(F)c1 (stereo not shown),3.99
12,CCc1nnc(NC(=O)c2nc(S(=O)(=O)Cc3ccccc3)ncc2Cl)s1,2.41
13,CCCc1cc2c(cc1N)OCCO2,-2.48
14,CCOc1ccc(C(=O)Nc2nnc(S(=O)(=O)N3CCCCC3)s2)cc1,-3.74
15,O=C(CN(Cc1ccc(Cl)c(Cl)c1)S(=O)(=O)c1ccccc1)NCc1ccccn1,-5.49
16,Oc1ccccc1-c1nc(O)c2c3c(sc2n1)CCCC3,-0.891
17,Cc1cccc(NC(=O)COc2ccccc2C)c1,-2.12
18,O=C(Nc1ccc(Cl)cc1)C(=O)NC1CCCC1,-7.18
19,CCCCc1ccc(-c2nc(C3CCC(C4CCC(CCC)CC4)CC3)no2)cc1 (stereo not shown),0.98
20,COc1ccc(CCNCc2ccccc2C)cc1OC,-2.37
21,O=C(NCc1ccccc1Cl)c1cnn2c(C(F)(F)F)cc(-c3cccs3)nc12,1.27
22,Cc1ccc(C(=O)Nc2ccc(S(=O)(=O)N3CCC(C)CC3)cc2)cc1,0.964

row,SMILES,% Inhibition @ 10 uM [%]
1,CC(C(=O)NCc1ccccn1)n1c2ccccc2c2cnn(C)c(=O)c21 (stereo not shown),-3.79
2,Cc1[nH]nc2c1C(c1cc(Br)ccc1OCc1cccc(F)c1)C(C#N)=C(N)O2 (stereo not shown),0.121
3,Cc1ccc2onc(CNC(=O)N3CCC(C)CC3)c2c1,-4.02
4,Cn1c(CNc2ccc(Cl)cc2)nc2ccccc21,-1.37
5,CCOC(=O)N1CCN(c2c(NCCCN(CC)Cc3ccccc3)c(=O)c2=O)CC1,1.93
6,CCC(C)NC(=O)Cn1ncc2c3ccccc3n(Cc3cccc(Cl)c3)c2c1=O (stereo not shown),1.8
7,O=C(O)c1cccc2[nH]ncc12,6.3
8,CC1=C(c2ccc(C)c(C)c2)S(=O)(=O)N=C1N1CCC(C(=O)NCc2ccc3c(c2)OCO3)CC1,-0.835
9,Cc1nc(Oc2ccccc2)cc(-n2nc(C)c(C(N)=O)c2N)n1,-3.65
10,Cc1nnc2c(NCCN3CCOCC3)nc3ccccc3n12,4.95
11,O=C(CSCc1ccccc1)Nc1nnc(COc2ccc(Cl)cc2)s1,2.3
12,c1ccc2c(CN3CCCCC3)csc2c1,0.82
13,CCOc1ccc(N2C(=O)CC(N(Cc3ccco3)C(=O)c3ccc(Cl)cc3)C2=O)cc1 (stereo not shown),1.01
14,N#Cc1c(C(F)(F)F)cc(-c2ccc(F)cc2)nc1SCC(=O)NC1CC1,4.75
15,CCCCCCC1CCC(C(=O)NC(CCSC)C(=O)O)CC1 (stereo not shown),0.505
16,CCOc1ccc(-n2c(CN(CC)CCO)nc3ccccc3c2=O)cc1,-3.33
17,CCOc1ccccc1/C=C/C1=[N+](C)c2ccc(C(=O)OC)cc2C1(C)C,-3.41
18,Cc1sc(C2C(C#N)=C(N)OC3=C2C(=O)CC(C)(C)C3)cc1COc1ccc(Br)cc1 (stereo not shown),1.03
19,CCOCCCNC(=O)CCS(=O)(=O)Cc1ccc(C)cc1,0.514
20,CCOc1ccccc1C1C(C(=O)OC)=C(N)OC2=C1C(=O)CC(C)(C)C2 (stereo not shown),23.4
21,CN1CCC(N2CCN(Cc3ccccc3)CC2)CC1,1.57
22,CC(=O)Nc1cccc(Nc2nc(N3CCOCC3)nc(N(c3ccccc3)c3ccccc3)n2)c1,3.31

row,SMILES,% Inhibition @ 10 uM [%]
1,CCOC(=O)C1=C(CC)OC(N)=C(C#N)C12C(=O)Nc1cc(Br)c(C)cc12 (stereo not shown),1.13
2,O=C1c2cccc3cccc(c23)C(=O)N1O,13.1
3,O=C(O)CC(CN1C(=O)C(O)=C(C(=O)c2ccccc2)C1c1ccc(Cl)cc1)c1ccccc1 (stereo not shown),9.65
4,Cc1noc(/C=C/c2ccco2)c1S(=O)(=O)N1CCC(C(=O)Nc2ccc(Cl)cn2)CC1,-3.09
5,CCc1ccccc1S(=O)(=O)Cc1ccc(C(=O)NCc2ccc(C)cc2)o1,-3.09
6,O=C(NCC(F)(F)C(F)F)c1ccncc1,4.14
7,Cc1cc(C)c(C#N)c(SCc2nc3ccccc3[nH]2)n1,0.76
8,CC(=O)Nc1ccc(NC(=O)c2ccc(Cl)c([N+](=O)[O-])c2)cc1,-4.35
9,Cc1cc(C)cc(NC(=O)c2ccccc2C)c1,3.53
10,CCN(CC)CCN(CC)Cc1ccc(Cl)c(Cl)c1,-0.446
11,CS(=O)(=O)c1ccc2nc(NC(=O)NC3(C(F)(F)F)Oc4ccccc4O3)sc2c1,3.61
12,CCCc1nc2ccccc2n1C(=O)c1ccccc1C(=O)O,2.1
13,Nc1nnc(SCC(=O)Nc2nnc(-c3ccccc3)s2)s1,14.1
14,COc1ccccc1NC(=O)C1=C(C)N=C2CCCC(O)=C2C1c1cccc(Br)c1 (stereo not shown),-2.77
15,CC1=C(C(=O)N2CCOCC2)C(c2ccc(C(F)(F)F)cc2)C2=C(O)CCCC2=N1 (stereo not shown),-1.48
16,Cc1ccsc1C1CC(=O)NC2=C1C(=O)CC(C)(C)C2 (stereo not shown),-1.29
17,C(=C\c1ccccc1)/CN1CCN(Cc2ccccc2)CC1,2.23
18,Brc1ccc(CN2CCN(c3ncccn3)CC2)cc1,-4.61
19,COc1ccccc1/C=C/CN1CCCCC1,2.1
20,CC1(C)CC2=Nc3ncnn3C(c3ccc(OC(F)F)cc3)C2=C(O)C1 (stereo not shown),3.32
